# Experimental data published in PubChem BioAssay AID1508624 (National Center for Advancing Translational Sciences (NCATS), 2021).
# The campaign covered roughly 48,000 compounds. About 120 (0.25%) were called active. About 4% were inconclusive and are not listed. Calls come from the whole dose curve; as a rule, active = well fitted activation curve with a large enough effect; inconclusive = small, poorly fitted or top-dose-only effect, or another doubt; inactive = no such curve, though single readings can be large or run the other way. The list shows a part of the results.
# Experiment: Primary qHTS for Identification of Small Molecule Activators of Huntingtin-Antisense Promoter Activity; note: nearly all actives have a fitted effect of over 55% in size
# Details: HEK293 HTT-AS promoter firefly luciferase reporter, 24 h; series mostly up to 57.5 µM; activity change, positive = activation: at the top concentration
# In short: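 HEK293 Fluc reporter, 2,500 cells/well, 24 h pre-culture; cpds up to 57.5 uM final, 24 h 37 degrees C; Dual-Glo, 10 min RT; normalized vehicle = 0%, zero RLU = -100%.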
# Potency is the fitted concentration of half-maximal effect.
Structure (SMILES),"activity change, positive = activation",Potency
Cc1ccc(-c2nc(SCC(=O)Nc3cc(C)on3)c3c(=O)n(C)c(=O)n(C)c3n2)cc1,inactive: -2.41%,
COc1ccccc1NC(=O)c1c(NC(=O)c2cccs2)sc2c1CCC(C(C)(C)C)C2 (configuration not stated),"inactive: 7.89% [at 11.5 µM, percent change from vehicle, -100% = no light]",
CCCCCNc1nc2c(-c3ccccc3)nnn2c2ccccc12,inactive: -9.13%,
CCc1ccc(OC(=O)c2sc3ncn(Cc4cccc(F)c4)c(=O)c3c2C)cc1,"inactive: -11.3% [at 11.5 µM, percent change from vehicle, -100% = no light]",
O=P(O)(O)C(O)(Cn1ccnc1)P(=O)(O)O,"inactive: -4.06% [at 25.1 µM, percent change from vehicle, -100% = no light]",
Cc1ccc(CCNC(=O)C2CCCN(S(=O)(=O)c3ccc4c(c3)oc(=O)n4C)C2)cc1 (configuration not stated),inactive: -4.44%,
CCc1ccc(C(=O)c2cn(Cc3ccccc3)c3cc(OC)c(OC)cc3c2=O)cc1,inactive: -22%,
CCc1ccc(-n2nc(C)c3c(C)cc(=O)n(CC(=O)N(CC)Cc4ccccc4)c32)cc1,inactive: 16.3%,
Oc1c(C(c2ccc(Cl)cc2Cl)N2CCCC2)sc2nc(-c3ccco3)nn12 (configuration not stated),inactive: -15.1%,
CCOc1ccc(CCNC(=O)CCSCc2cccc(Cl)c2)cc1OCC,inactive: -8.92%,
COc1ccccc1NC(=O)CSc1nc(-c2cccc(Cl)c2)nc2c1Cc1c(CO)cnc(C)c1O2,inactive: -13.3%,
CCc1ccccc1NC(=O)COC(=O)c1cn(CC)c2nc(C)ccc2c1=O,inactive: -9.65%,
CCCCOC(=O)c1ccc(Nc2nc3ccc(C)cc3n3cnnc23)cc1,inactive: -10.9%,
CN(C)c1ccc(NC(=O)C2(c3cccs3)CCOCC2)cc1,inactive: -1.82%,
O=C(Nc1cc(Cl)ccc1O)c1cc2nc(-c3ccc4c(c3)OCO4)cc(C(F)(F)F)n2n1,inactive: -11.7%,
CCOc1ccc(-n2c(SCC(=O)N3CCCc4ccccc43)nc3c([nH]c4ccccc43)c2=O)cc1,inactive: -13%,
CN(c1ccc(Cl)cc1)S(=O)(=O)c1nnc(NC(=O)c2ccco2)s1,inactive: -21.7%,
CCOC(=O)c1[nH]c(C)c(C(=O)NCCc2ccccc2)c1C,,active: 7.94 µM
CCOc1ccccc1NC(=O)CCS(=O)(=O)c1ccc(OC)cc1,inactive: -3.18%,
CCc1ccc(NC(=O)c2cc(CN3CCOCC3)on2)cc1,inactive: 24.7%,
O=C(CCn1c(=O)c2ccccc2n(Cc2ccc(Cl)cc2)c1=O)NCc1ccc2c(c1)OCO2,inactive: -13.7%,
Cc1cccc(-n2ccnc2SCC(=O)Nc2cc(C(F)(F)F)ccc2Cl)c1,inactive: -36.4%,
CC(C)CCn1c(=O)c2sccc2n2c(CCCC(=O)Nc3ccc(F)c(Cl)c3)nnc12,inactive: -35.8%,
O=C(NCc1ccc(F)cc1Cl)c1ccc(CSCc2ccccc2Cl)o1,inactive: -4.7%,

Structure (SMILES),"activity change, positive = activation",Potency
Cc1ccc(NC(=O)c2cc(-c3cccs3)nc3ccccc23)c(C)c1,inactive: 9.38%,
Cc1ccc(N2CCN(C(=O)Nc3cn(CC(C)C)c(=O)c4ccccc34)CC2)c(C)c1,inactive: -6.66%,
CC(C)Oc1ccc(CNC(=O)c2cnc3sc(N4CCCCCC4)nn3c2=O)cc1,inactive: -3.7%,
C[C@]12CCC3c4ccc(O)cc4CCC3C1CCC2=O (some centres not stated),inactive: -22.8%,
COc1ccc2c3n(c(=NC(=O)c4cccnc4)nc2c1OC)CCN3,inactive: -28.6%,
CCOc1ccc(/C=C/c2nc(C#N)c(N3CCCCCC3)o2)cc1,inactive: -5.39%,
Cc1ccc(CNC(=O)c2ccc(CSCc3c(F)cccc3Cl)o2)cc1,inactive: -9.18%,
COc1ccccc1NC(=O)Cn1c(=O)n(Cc2nc(C)no2)c(=O)c2cc3c(cc21)OCO3,inactive: -4.07%,
CCN(CC)CCNC(=O)c1c(C)[nH]c(C=C2C(=O)Nc3ccc(F)cc32)c1C,"inactive: -31.3% [at 116 µM, percent change from vehicle, -100% = no light]",
Cc1cc(C)n2nc(CNS(=O)(=O)c3ccc(F)cc3)nc2n1,inactive: -3.38%,
COc1ccccc1NC(=O)N1CCOc2ccccc21,inactive: -14.1%,
CCCN(CCC)CCNC(=O)Cn1cnc2sc(C)c(S(=O)(=O)N3CCN(c4ccccc4OC)CC3)c2c1=O,inactive: 22.4%,
CCn1c(C(=O)NCc2ccccc2)cc2sc(Cl)cc21,inactive: -48.1%,
COc1cccc(CNC(=O)c2ccc(CN3CC(=O)N4CCCCC4C3=O)cc2)c1 (configuration not stated),inactive: -14.6%,
COc1ccccc1/C=C(\C#N)C(=O)NCC1CCCO1 (configuration not stated),inactive: -7.5%,
COC(=O)c1c(SC)nc2ccccc2c1OCc1cc(C)ccc1C,inactive: -15.2%,
Cc1ccc(CNC(=O)c2ccc(NC(=O)c3nsc4ccccc34)cc2)cc1,inactive: -37.5%,
CCCOc1ccc(CNC(=O)c2cc3oc4ccccc4c3n2C)cc1,inactive: -20.6%,
CCN(CC)CCOCCOC(=O)C1(c2ccccc2)CCCC1,inactive: -9.13%,
O=C(Nc1ccc2nc(SCC(=O)N3CCc4ccccc43)sc2c1)c1ccc(Cl)cc1,inactive: -14.7%,
O=C(CSc1nc(-c2cccs2)cc(C(F)(F)F)n1)Nc1ccccc1Cl,inactive: -28.5%,
Cc1ccc(NC(=O)CN2C(=O)C(c3ccc(F)cc3)=NC2(C)C)c(C)c1,inactive: -13.9%,
Cc1cccc(C(=O)Nc2sc3c(c2C(=O)Nc2ccccc2)CCC3)c1,inactive: -12.5%,
